Entries after “also recorded” stand apart in the source; their conditions may differ.
Columns and labels:
NanoLuc-TGA, TAA or TAG = assay: Stop codon specificity, NanoLuc reporter plasmids containing TGA, TAA or TAG nonsense codons; assay type: cell-based, human; details: transiently transfected HEK293 cells; listed as ACE-tRNA^Gly
NLuc-UGA = details: gentamicin 40 uM, G418 140 or 150 uM, 24 or 48 hr, listed as ACE-tRNA^Gly
Procedure: FIGS. 32A-32D. ACE-tRNAs are more efficient than aminoglycoside PTC suppression.
Generation of stable NLuc reporter cell lines. […] CO2-controlled (5%) cell incubator for 48 hr. […] . […] CO2 controlled (5%) cell culture incubator.

B1: Glychr19.trna2: top performing glycine ACE-tRNA UGA, SEQ ID NO: 53 (nucleic acid)
chain: GCGUUGGUGGUAUAGUGGUUAGCAUAGCUGCCUUCAAAGCAGUUGACCCGGGUUCGAUUCCCGGCCAACGCA
modifications: chemistry not given here
For B1, the “stop codon selectivity (UGA over UAA and UAG)” value (NanoLuc-TGA, TAA or TAG) was “retained selectivity for the UGA stop codon, over UAA and UAG” and the “PTC suppression compared with gentamicin and G418” value (NLuc-UGA) was “outperformed the conventional small molecule suppressors gentamicin (40 μM) and G418 (140 μM); also recorded: outperforms both gentamicin (40 uM) and G418 (140 uM)”.

— patent US12559749B2, “Methods of rescuing stop codons via genetic reassignment with ACE-tRNA” (UNIVERSITY OF IOWA RESEARCH FOUNDATION, priority 2017, dated 2026)
